Laboratory results published in US7745645B2, “Sulfonamide derivatives of xanthene compounds” (Pierce Biotechnology, Inc., priority 2007, dated 2010).

System: Biotinylated-BSA
Experiment: Plate assay using Streptavidin and NeutrAvidin conjugates
Format: binding
Settings: conjugate diluted 0.004 mg/ml in PBS; Biotinylated-BSA coated plates
Protocol: Data for functional assays using the compound of formula V conjugated each of Streptavidin and NeutrAvidin® are shown in FIGS. 2 and 3, respectively. The assays were performed on serially diluted 96-well white opaque Biotinylated-BSA coated plates (2 μg/ml to 0 μg/ml). The plates were washed 3×200 μl with PBS-0.05% Tween and 1×200 μl with PBS buffer. Formula V-Streptavidin (SA) and Formula V-NeutrAvidin® (NA) conjugates were diluted 0.004 mg/ml in PBS buffer. Diluted conjugates were applied to the wells of the plates (100 μl/well), the plates were covered and protected from light, incubated for one hour, then washed as previously described. PBS buffer was added to the plates (100 μl/well) and the fluorescent intensity was captured using the TECAN Safire® at green laser setting. Commercially available Alexa Fluor® 488-SA (Molecular Probes) was diluted to the same concentration and evaluated as previously described with reference to the formula V conjugated SA.

B1: Formula V conjugated NeutrAvidin: compound of formula V conjugated to NeutrAvidin Biotin Binding Protein (conjugate, UniProt P02701 25-152, looked up)
Avidin: ARKCSLTGKWTNDLGSNMTIGAVNSRGEFTGTYITAVTATSNEIKESPLHGTQNTINKRTQPTFGFTVNWKFSESTTVFTGQCFIDRNGKEVLKTMWLLRSSVNDIGDDWKATRVGINIFTRLRTQKE
modifications: deglycosylated avidin; formula V dye label
For B1, the “biotinylated BSA detected at a level of” value was 2 ng/well.
